The record followed here is the supplement of paper PMC8285479.

Each structure is given as a SMILES string. Structures can show the parent of a compound that is named as a salt. ± gives the standard deviation of the averaged measurements. In all, about 1,900 compounds were measured (“normalised cell viability (NPI; 0 = phenylarsine oxide control, 1 = DMSO control)”: median about 1, lowest 2% from about 0.039 on). This is one part of the list.

In this test the test system is NCI-H1944. Briefly: normalised cell viability (NPI; 0 = phenylarsine oxide control, 1 = DMSO control) (fraction of DMSO control); NCI-H1944 is a non-small cell lung cancer line; higher = more viable cells (less compound toxicity). The conditions noted are these: 6 days.
Where [1] appears, read: glucocorticoid arm: hydrocortisone 2.75 uM co-treatment, compound 1 µM.
The mark [2] stands for this setting: glucocorticoid arm: hydrocortisone 2.75 uM co-treatment, compound 5 µM.
[3] abbreviates: glucocorticoid arm: hydrocortisone 2.75 uM pre-treated 2 days and continued, compound 1 µM.
[4] abbreviates: glucocorticoid arm: hydrocortisone 2.75 uM pre-treated 2 days and continued, compound 5 µM.
The mark [5] stands for this setting: glucocorticoid arm: vehicle, compound 1 µM.
The mark [6] stands for this setting: glucocorticoid arm: vehicle, compound 5 µM.
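Note: CTB read-out in 384-well plates, mean of triplicate wells, normalised per plate against 1 µM phenylarsine oxide and 0.1% DMSO, compounds added 24 h after seeding.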

For `CC(C)[N+]1(C)[C@@H]2CC[C@H]1C[C@@H](OC(=O)C(CO)c1ccccc1)C2` (stereo not given in full) [Ipratropium bromide], the normalised cell viability reads like this: under setting [1], 1.003 ± 0.0058; under setting [2], 0.993 ± 0.012; under setting [3], 0.996 ± 0.0046; under setting [4], 0.987 ± 0.015; under setting [5], 0.9977 ± 0.0025; under setting [6], 1.002 ± 0.0068.
Turning to `CN[C@H]1CC[C@@H](c2ccc(Cl)c(Cl)c2)c2ccccc21` [Sertraline hydrochloride], the normalised cell viability by setting is: under setting [1], 1.023 ± 0.0058; under setting [2], 1.05 ± 0.015; under setting [3], 1.02 ± 0.015; under setting [4], 0.89 ± 0.29; under setting [5], 1.003 ± 0.0058; under setting [6], 1.03 ± 0.01.
As for `CN[C@H]1CC[C@@H](c2ccc(Cl)c(Cl)c2)c2ccccc21` [Sertraline HCl], the normalised cell viability was found to be 1.03 ± 0.011 under setting [1]; 1.08 ± 0.025 under setting [2]; 1.03 ± 0.015 under setting [3]; 1.03 ± 0.015 under setting [4]; 0.9963 ± 0.0047 under setting [5]; 0.98 ± 0.013 under setting [6].
`COc1ccc2c(c1)c(CC(=O)O)c(C)n2Cc1ccc(F)cc1` [1-(4-Fluorobenzyl)-5-methoxy-2-methylindole-3-acetic acid]: the normalised cell viability is, setting by setting: under setting [1], 0.987 ± 0.014; under setting [2], 0.977 ± 0.017; under setting [3], 0.983 ± 0.028; under setting [4], 0.982 ± 0.013; under setting [5], 0.9717 ± 0.0076; under setting [6], 0.974 ± 0.0027.
Take `CCn1c(N)c(C(=O)NC)c(=O)c2ccc(C#CC(C)(O)COC)nc21` (stereo not given): the normalised cell viability reads like this: under setting [1], 1.006 ± 0.0063; under setting [2], 1 ± 0.014; under setting [3], 1.001 ± 0.0083; under setting [4], 0.996 ± 0.026; under setting [5], 0.996 ± 0.015; under setting [6], 0.975 ± 0.02.
`OCCn1cc(-c2ccc3c(c2)CC/C3=N\O)c(-c2ccncc2)n1`: the normalised cell viability reads like this: under setting [1], 1.1 ± 0.01; under setting [2], 1.17 ± 0.017; under setting [3], 1.087 ± 0.0058; under setting [4], 1.12 ± 0.015; under setting [5], 1.03; under setting [6], 1.04 ± 0.01.
For the molecule `CNC(=O)c1c(F)cccc1Nc1nc(Nc2cc3c(cc2OC)CCN3C(=O)CN(C)C)nc2[nH]ccc12`, the normalised cell viability reads like this: under setting [1], 0.542 ± 0.031; under setting [2], 0.467 ± 0.013; under setting [3], 0.622 ± 0.016; under setting [4], 0.598 ± 0.034; under setting [5], 0.99; under setting [6], 0.9713 ± 0.009.
Consider `COc1ccc2c(c1)c(CC(=O)O)c(C)n2C(=O)c1ccccc1` [1-benzoyl-5-methoxy-2-methylindole-3-acetic acid], for which the normalised cell viability reads like this: under setting [1], 1 ± 0.011; under setting [2], 0.9993 ± 0.0011; under setting [3], 0.9923 ± 0.0093; under setting [4], 0.99 ± 0.028; under setting [5], 0.9833 ± 0.0042; under setting [6], 0.987 ± 0.01.
With `C#Cc1ccc2c(c1)C(=O)N(C)Cc1c(C(=O)OCCCOC(=O)c3ncn4c3CN(C)C(=O)c3cc(C#C)ccc3-4)ncn1-2` [Xli 093 hydrate], the normalised cell viability under setting [1] was found to be 0.999 ± 0.011; the normalised cell viability under setting [2] worked out at 1.01 ± 0.015; the normalised cell viability under setting [3] is 1 ± 0.013; the normalised cell viability under setting [4] came out at 1.01; the normalised cell viability under setting [5] was 0.99 ± 0.01; the normalised cell viability under setting [6] was 0.9967 ± 0.0015.
On to `O=C(/C=C/c1cccc(S(=O)(=O)Nc2ccccc2)c1)NO` [Belinostat (PXD101)], for which the normalised cell viability stood at 0.9767 ± 0.0051 under setting [1]; 0.0174 ± 0.0036 under setting [2]; 1.02 under setting [3]; 0.114 ± 0.0036 under setting [4]; 0.575 ± 0.067 under setting [5]; 0.00153 ± 0.00067 under setting [6].
With `CC(C)(C)c1cc(NC(=O)Nc2ccc(-c3cn4c(n3)sc3cc(OCCN5CCOCC5)ccc34)cc2)no1` [Quizartinib (AC220)], the normalised cell viability by setting is: under setting [1], 1.04 ± 0.011; under setting [2], 1.06 ± 0.015; under setting [3], 1.023 ± 0.0058; under setting [4], 1.02 ± 0.051; under setting [5], 1.05 ± 0.049; under setting [6], 1.027 ± 0.0058.
`C=C/C(C)=C/[C@@]1(C)SC(=O)C(C)=C1O` [Thiolactomycin]: the normalised cell viability by setting is: under setting [1], 0.992 ± 0.0056; under setting [2], 0.961 ± 0.021; under setting [3], 1 ± 0.026; under setting [4], 0.848 ± 0.23; under setting [5], 0.9883 ± 0.0015; under setting [6], 0.998 ± 0.012.
In the case of `COc1cc2nc(N3CCN(C(=O)C4COc5ccccc5O4)CC3)nc(N)c2cc1OC` (stereo not given) [Doxazosin mesylate], the normalised cell viability is 1.01 ± 0.013 under setting [1]; 0.995 ± 0.022 under setting [2]; 0.997 ± 0.014 under setting [3]; 1.04 under setting [4]; 1 ± 0.011 under setting [5]; 0.9887 ± 0.0098 under setting [6].
On to `COc1cc2nc(N3CCN(C(=O)C4COc5ccccc5O4)CC3)nc(N)c2cc1OC` (stereo not given) [Doxazosin Mesylate], for which the normalised cell viability amounted to 1.007 ± 0.0058 under setting [1]; 1.027 ± 0.0058 under setting [2]; 1.01 ± 0.018 under setting [3]; 1.02 ± 0.015 under setting [4]; 0.9953 ± 0.0011 under setting [5]; 0.9983 ± 0.0029 under setting [6].
Take `N#C/C(=C(/N)Sc1ccc(N)cc1)c1ccccc1C(F)(F)F`: the normalised cell viability reads like this: under setting [1], 0.827 ± 0.0092; under setting [2], 0.649 ± 0.021; under setting [3], 0.85 ± 0.013; under setting [4], 0.78 ± 0.011; under setting [5], 0.954 ± 0.0069; under setting [6], 0.859 ± 0.057.
Take `COc1cc(OC)c(NC(=O)Nc2cc(C)on2)cc1Cl`: the normalised cell viability reads like this: under setting [1], 0.955 ± 0.011; under setting [2], 0.857 ± 0.0095; under setting [3], 0.981 ± 0.02; under setting [4], 0.914 ± 0.0056; under setting [5], 0.971 ± 0.018; under setting [6], 0.9783 ± 0.0093.
For the molecule `CNC(=O)c1ccc(N2C(=S)N(c3ccc(C#N)c(C(F)(F)F)c3)C(=O)C2(C)C)cc1F` [Enzalutamide], the normalised cell viability worked out at 1.02 ± 0.011 under setting [1]; 0.658 ± 0.015 under setting [2]; 1.002 ± 0.0072 under setting [3]; 0.812 ± 0.026 under setting [4]; 1.002 ± 0.0072 under setting [5]; 0.244 ± 0.02 under setting [6].
For the molecule `O=C(CCBr)N1CCN(C(=O)CCBr)CC1` [Pipobroman], the normalised cell viability under setting [1] amounted to 1.01 ± 0.011; the normalised cell viability under setting [2] is 1.06 ± 0.01; the normalised cell viability under setting [3] turned out to be 1.01 ± 0.012; the normalised cell viability under setting [4] came out at 1.06 ± 0.01; the normalised cell viability under setting [5] is 1.003 ± 0.0058; the normalised cell viability under setting [6] is 0.82 ± 0.019.
Turning to `N[C@H]1CONC1=O` [L-Cycloserine], the normalised cell viability reads like this: under setting [1], 1.01 ± 0.016; under setting [2], 1.01 ± 0.017; under setting [3], 1 ± 0.017; under setting [4], 0.99 ± 0.0057; under setting [5], 1.01 ± 0.011; under setting [6], 1.002 ± 0.007.
In the case of `CC#CCn1c(N2CCC[C@@H](N)C2)nc2c1c(=O)n(Cc1nc(C)c3ccccc3n1)c(=O)n2C` [Linagliptin (BI-1356)], the normalised cell viability reads like this: under setting [1], 0.977 ± 0.01; under setting [2], 1.001 ± 0.0085; under setting [3], 0.987 ± 0.028; under setting [4], 1 ± 0.013; under setting [5], 0.992 ± 0.011; under setting [6], 1.007 ± 0.0058.
On to `COc1ccc2c3n(c(=NC(=O)c4cccnc4)nc2c1OC)CCN3`, for which the normalised cell viability under setting [1] was found to be 0.911 ± 0.004; the normalised cell viability under setting [2] amounted to 0.628 ± 0.018; the normalised cell viability under setting [3] worked out at 0.901 ± 0.012; the normalised cell viability under setting [4] turned out to be 0.663 ± 0.033; the normalised cell viability under setting [5] was found to be 0.9907 ± 0.0049; the normalised cell viability under setting [6] was determined as 0.85 ± 0.029.
Turning to `CCN(CC)CCOCCOC(=O)C1(c2ccccc2)CCCC1` [Carbetapentane citrate], the normalised cell viability runs as follows: under setting [1], 0.985 ± 0.025; under setting [2], 0.952 ± 0.019; under setting [3], 1.02 ± 0.01; under setting [4], 1.01; under setting [5], 0.998 ± 0.013; under setting [6], 1.003 ± 0.0058.
In the case of `O=c1[nH]ccc2c(O)cccc12` [1,5-Isoquinolinediol], the normalised cell viability reads like this: under setting [1], 1.007 ± 0.0058; under setting [2], 1.01 ± 0.017; under setting [3], 0.9963 ± 0.0063; under setting [4], 1.04 ± 0.086; under setting [5], 0.985 ± 0.007; under setting [6], 0.991 ± 0.017.
As for `Cc1cc(C(C)(C)C)cc(C)c1CC1=NCCN1` [Xylometazoline hydrochloride], the normalised cell viability runs as follows: under setting [1], 1.02 ± 0.01; under setting [2], 1.02 ± 0.02; under setting [3], 1.03 ± 0.032; under setting [4], 1.03 ± 0.021; under setting [5], 1.013 ± 0.0058; under setting [6], 1.02 ± 0.01.
Consider `COc1cc(NC(=O)c2ccccn2)ccc1Cl`, for which the normalised cell viability reads like this: under setting [1], 1.03 ± 0.023; under setting [2], 1.02 ± 0.011; under setting [3], 1.007 ± 0.0058; under setting [4], 1.01 ± 0.02; under setting [5], 1.02 ± 0.017; under setting [6], 1.003 ± 0.0064.
